# Test results published in PubChem BioAssay AID588855 (National Center for Advancing Translational Sciences (NCATS), 2011).
# The whole screen tested about 410,000 compounds, of which about 5,000 (1.2%) were called active. The inconclusive results got no clear call from the source; some entries with a clear call stand among them for comparison. Calls come from the whole dose curve; as a rule, active = well fitted inhibition curve with a large enough effect; inconclusive = small, poorly fitted or top-dose-only effect; inactive = no such curve, though single readings can be large or run the other way. Potencies of inconclusive entries are doubtful fits and often do not repeat.
# Experiment: qHTS for Inhibitors of TGF-b; note: nearly all actives have a fitted effect of over 65% in size
# Settings: HepG2 CAGA-GFP TGF-b/SMAD3 reporter, GFP fluorescence, 18 h, TGF-beta stimulated, 500 pg/mL final; series mostly up to 46.1 µM
# Procedure, shortened: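 Inhibition of TGF-beta-driven CAGA-GFP reporter expression in HEPG2 cells is measured by cellular GFP fluorescence after 18 h stimulation with 500 pg/mL recombinant TGF-beta in 1% FBS medium at 37 degrees C.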
# Potency is the fitted concentration of half-maximal effect; tags give direction and shape of the fitted curve.
row,SMILES,Potency
1,Cc1nnc(N/N=C/c2cccc(C(F)(F)F)c2)n1N,"inconclusive: 12.6 µM [inhibitor, partial curve, poor fit]"
2,O=C(CN1C(=O)CC(c2ccc(F)cc2)=Nc2ccccc21)NCc1ccccc1Cl,"inconclusive: 12.6 µM [inhibitor, partial curve, poor fit]"
3,Cc1ccc(/C=N/NC(=O)C2COc3ccccc3O2)s1 (stereo unspecified),inactive
4,Cc1noc2ncnc(N3CCN(c4cccc(Cl)c4)CC3)c12,"inconclusive: 11.2 µM [inhibitor, single point]"
5,COc1ccc(C(C(=O)NC2CCCC2)N(CCC(C)C)C(=O)CCC(=O)Nc2cc(C)on2)cc1 (stereo unspecified),"inconclusive: 10 µM [inhibitor, partial curve]"
6,CCOC(=O)N(C)[C@H]1C[C@H]2c3[nH]c4ccccc4c3CCN2C[C@H]1[C@H](C)O,inactive
7,N#C/C(=C\c1ccc(Cl)cc1)c1nc(-c2cc3c(ccc4ccccc43)oc2=O)cs1,"inconclusive: 5.62 µM [inhibitor, single point]"
8,O=C(Cn1c(=O)n(-c2ccccc2)c(=O)c2sc3ccccc3c21)NC1CCCC1,"inconclusive: 5.62 µM [inhibitor, single point]"
9,CCOCCCNC(=O)Cn1nc(-c2ccccc2)ccc1=O,"inconclusive: 35.5 µM [inhibitor, single point]"
10,COc1ccc(Nc2c3c(c(C#N)c4nc5ccccc5n24)CCC3)cc1,"inconclusive: 5.62 µM [inhibitor, single point]"
11,O=[N+]([O-])c1cccc(NC(=S)N2CCc3ccccc32)c1,"inconclusive: 11.2 µM [inhibitor, single point]"
12,CCOc1ccc(NC(=O)C23CC4CC(C2)CC(c2ccccc2)(C4)C3)cc1,"inconclusive: 35.5 µM [inhibitor, single point]"
13,Cc1ccc(-n2c(=O)c3ccccc3n(CC(=O)Nc3cccc(C(F)(F)F)c3)c2=O)cc1,"inconclusive: 3.98 µM [inhibitor, partial curve, poor fit]"
14,CC(=O)NC1=NN(C(C)=O)C(C)(CCS(=O)(=O)c2ccc(Br)cc2)S1 (stereo unspecified),"inconclusive: 35.5 µM [inhibitor, single point]"
15,O=C(c1ccccc1)N1CCCCC1CCN1CCCCC1 (stereo unspecified),"inconclusive: 3.55 µM [inhibitor, single point]"
16,CC(C)Cn1c(N)c(C(=O)COC(=O)C2Cc3ccccc3CN2S(C)(=O)=O)c(=O)n(C)c1=O (stereo unspecified),"inconclusive: 11.2 µM [inhibitor, single point]"
17,CCOC(CNC(=O)c1ccc2c(c1)nc(C)n2-c1cccc(F)c1)OCC,"inconclusive: 5.62 µM [inhibitor, single point]"
18,COc1ccc2c(c1)CCCC2NS(=O)(=O)OCC(Cl)(Cl)Cl (stereo unspecified),"inconclusive: 35.5 µM [inhibitor, single point]"
19,CC(=O)Nc1ccc(S(=O)(=O)NCc2cccnc2)cc1,inactive
20,CCN1CCc2c(C#N)c(NCc3ccccc3)nc(N(CC)CC)c2C1,inactive
21,Cc1ccc(S(=O)(=O)CC(=O)Nc2nc(-c3ccccc3)cs2)cc1,"inconclusive: 22.4 µM [inhibitor, partial curve, poor fit]"
22,O=S(=O)(Nc1ccc(-c2nnc(SCc3ccc(Cl)cc3)o2)cc1)c1ccccc1,"inconclusive: 35.5 µM [inhibitor, single point]"

row,SMILES,Potency
1,O=C(Nc1cccc(NC(=O)c2sc3ccccc3c2Cl)c1)c1ccco1,"inconclusive: 10 µM [inhibitor, partial curve, poor fit]"
2,CC1CCCCN1CCCNC(=O)Cn1ncc2c3ccccc3n(Cc3ccccc3F)c2c1=O (stereo unspecified),inactive
3,CCOc1ccc(NC(=O)CN(C)C(=O)c2ccccc2OCc2cccc(C)c2)cc1OCC,"inconclusive: 35.5 µM [inhibitor, single point]"
4,Cc1cccc(NC(=O)C2CCN(S(=O)(=O)c3ccc4ccccc4c3)CC2)n1,"inconclusive: 11.2 µM [inhibitor, single point]"
5,CCOC(=O)C1(CCOc2ccccc2)CCN(Cc2cccc(-n3cccn3)c2)CC1,"inconclusive: 35.5 µM [inhibitor, single point]"
6,CCCOC(=O)c1cc(-c2ccc(C=O)o2)ccc1Cl,"inconclusive: 35.5 µM [inhibitor, single point]"
7,O=S(=O)(Nc1cccnc1)c1cc(Cl)ccc1Cl,"inconclusive: 3.55 µM [inhibitor, partial curve, poor fit]"
8,Cc1cc(C)c2c(=N)c3ccccc3n(CCCCCCCCn3c4ccccc4c(=N)c4c(C)cc(C)nc43)c2n1,"inconclusive: 35.5 µM [inhibitor, single point]"
9,Cc1ccccc1-n1cc(-c2ccc(Br)cc2)nc1SCC(N)=O,"inconclusive: 35.5 µM [inhibitor, single point]"
10,COC(=O)c1sccc1NC(=O)NC1CCCCC1,"inconclusive: 10 µM [inhibitor, partial curve, poor fit]"
11,CC1CCN(c2nc(-c3ccc(Br)cc3)nc3ccccc23)CC1,"inconclusive: 11.2 µM [inhibitor, partial curve]"
12,Cc1cccn2cc(-c3ccc(Cl)cc3)nc12,"inconclusive: 15.8 µM [inhibitor, single point]"
13,Cc1ccnc(NC(=O)Nc2ccc(F)cc2)c1,"inconclusive: 0.891 µM [inhibitor, full curve, poor fit]"
14,CN(C)c1ccc(CNC(=O)c2sc3ncccc3c2-n2cccc2)cc1,"inconclusive: 20 µM [inhibitor, single point]"
15,O=C(N/C(=C/C=C/c1ccccc1)C(=O)N1CCCCC1)c1ccc([N+](=O)[O-])cc1,"inconclusive: 6.31 µM [inhibitor, single point]"
16,Cn1cccc1/C=C1\SC(=Nc2ccc(O)cc2)NC1=O,"inconclusive: 2.82 µM [inhibitor, full curve, poor fit]"
17,CN(C)c1ccc(/C=C/c2ccc3ncccc3c2)cc1,inactive
18,COc1ccccc1CNC(=O)CS(=O)(=O)Cc1nc(-c2ccccc2C)oc1C,"inconclusive: 22.4 µM [inhibitor, single point]"
19,O=C(Nc1ccc(-c2nc3ccccc3o2)cc1)C1CCCO1 (stereo unspecified),inactive
20,CCOc1ccccc1C(=O)N[C@H](C(=O)Nc1nc2c(s1)CCCC2)C(C)C,"inconclusive: 25.1 µM [inhibitor, single point]"
21,Cc1ccc(C(=O)N2CCC(C(=O)NCc3cccnc3)CC2)cc1,"inconclusive: 6.31 µM [inhibitor, single point]"
22,CCOC(=O)CSc1ncccn1,"inconclusive: 6.31 µM [inhibitor, single point]"

row,SMILES,Potency
1,CCOC(=O)c1ccc(NC(=O)CC2C(=O)N(c3ccccc3)C(=O)N2C2CCCCC2)cc1 (stereo unspecified),inactive
2,O=C(Nc1ccccc1)Nc1nnc(-c2ccccc2)o1,inactive
3,CCOC(=O)c1c(C)c(C)n(Cc2cccc(OC)c2OC)c1C,"inconclusive: 35.5 µM [inhibitor, single point]"
4,CC(=O)Nc1ccc(NC(=O)c2cc[n+]([O-])cc2)cc1,inactive
5,CN(CC(=O)Nc1ccccc1C(F)(F)F)C(=O)COc1cccnc1[N+](=O)[O-],inactive
6,Cc1ccc(C(=O)N2CCC(C(=O)c3ccc(Cl)cc3)CC2)cc1,"inconclusive: 10 µM [inhibitor, single point]"
7,N#CCCN1CCN(CCC#N)c2ccccc21,inactive
8,COc1cccc(NC(=O)C2(C)CCN2Cc2ccc3ccccc3c2)c1 (stereo unspecified),"inconclusive: 35.5 µM [inhibitor, single point]"
9,CCOCCCNC(=O)C(NC(=O)c1ccccc1O)c1ccccc1 (stereo unspecified),"inconclusive: 0.447 µM [inhibitor, partial curve, poor fit]"
10,CC1(c2ccc(OC(F)F)cc2)NC(=O)N(CC(=O)Nc2ccc(OC(F)F)cc2)C1=O (stereo unspecified),"inconclusive: 35.5 µM [inhibitor, partial curve, poor fit]"
11,Cc1[nH]n(-c2ccccc2)c(=O)c1C(c1ccc(O)c([N+](=O)[O-])c1)c1c(C)[nH]n(-c2ccccc2)c1=O,inactive
12,CCOC(=O)C1=C(O)C(=O)NC(c2ccccc2)=C(OCC)C1,inactive
13,Cc1cc(N/N=C/c2cccc(Cl)c2)nc(NCc2ccccc2)n1,active: 20 µM
14,O=C(OCC(=O)N1CCCC1=O)c1cc(S(=O)(=O)N2CCOCC2)ccc1F,"inconclusive: 12.6 µM [inhibitor, partial curve, poor fit]"
15,O=C(NC(=S)Nc1ccc(N2CCOCC2)cc1)c1cccs1,inactive
16,COc1cccc(CNCCSc2nnnn2C)c1OCc1ccc(Cl)cc1,active: 17.8 µM
17,O=C(CCNC(=O)Cn1cnc2ccccc2c1=O)NCCC1=CCCCC1,inactive
18,O=C(C1CCN(c2nc3ccccc3[nH]2)CC1)N1CCN(c2cccc(Cl)c2)CC1,"inconclusive: 35.5 µM [inhibitor, single point]"
19,CN(C)CCCN1c2ccc([N+](=O)[O-])cc2CCc2cc([N+](=O)[O-])ccc21,"inconclusive: 35.5 µM [inhibitor, single point]"
20,O=C(NCCCCc1ccccc1)C1CC(c2ccccc2C(F)(F)F)=NO1 (stereo unspecified),"inconclusive: 0.282 µM [inhibitor, full curve]"
21,CCOC(=O)c1c(-c2ccc(OC)c(OC)c2)csc1NC(=O)c1ccc(F)cc1,"inconclusive: 35.5 µM [inhibitor, single point]"
22,COc1cc2c(-c3ccccc3Cl)nc3c(c(C)nn3-c3ccccc3)c2cc1OC,"inconclusive: 1.58 µM [inhibitor, partial curve, poor fit]"
